± gives the standard deviation of the averaged measurements. Whole data set: some 33,000 sequences, median “E-score (dimensionless, -0.5 to 0.5)” near -0.049, cut for the highest 2% near 0.37. Some of the results follow.
Tested on: T1, PmTbr T-box DNA-binding domain (GST fusion)
T1 sequence: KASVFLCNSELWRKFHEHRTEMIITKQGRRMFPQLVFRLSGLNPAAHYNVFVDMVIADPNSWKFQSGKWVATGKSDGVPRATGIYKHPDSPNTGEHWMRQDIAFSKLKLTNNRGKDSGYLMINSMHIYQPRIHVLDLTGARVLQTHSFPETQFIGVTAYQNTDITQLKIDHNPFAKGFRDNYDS
Assay: PBM E-score of 8-mer (E-score (dimensionless, -0.5 to 0.5)); Tbr is Tbrain of the sea star Patiria miniata (Pm) or the sea urchin Strongylocentrotus purpuratus (Sp); higher = stronger binding preference; most listed sequences are background and not binding sites
Conditions: the construct has about 5 more residues each side
Procedure, shortened: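 Universal Agilent oligonucleotide arrays, made double-stranded by primer extension, were incubated with 200 nM GST-fused Tbr T-box DNA-binding domain in PBS (pH 7.5). The protein was expressed in BL21 E. coli at 20 °C and purified by glutathione affinity chromatography. After scanning and quantification, the Universal PBM Analysis Suite assigned an enrichment E-score to each ungapped 8-mer, averaged over duplicate arrays.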

Sequence	PBM E-score of 8-mer
AGTTCTTG	-0.0105 ± 0.0029
CGGAATAA	-0.0824 ± 0.028
ATGGTAAA	-0.237 ± 0.029
AAGATCGT	-0.214 ± 0.0059
CTTTTTAC	-0.135 ± 0.049
CAGGGTCG	0.195 ± 0.05
AAAGATCC	-0.0828 ± 0.036
AGGTTCCG	-0.191 ± 0.011
CTCTTTTA	0.105 ± 0.092
TGCACAAA	0.142 ± 0.03
AGCCATAC	-0.241 ± 0.042
CCCGGATC	-0.085 ± 0.022
AAGGGGGG	-0.444 ± 0.023
ACTAGGGC	-0.223 ± 0.012
ATCCAAAG	-0.212 ± 0.015
CGCCGCCG	0.0672 ± 0.087
CACAGCGC	0.0941 ± 0.012
GTCCTAAC	-0.0938 ± 0.0047
CAATCGTA	-0.122 ± 0.015
CGGTCTAG	-0.254 ± 0.037
GGAGGGCA	-0.0993 ± 0.068
CAATTTCA	-0.00885 ± 0.039

Sequence	PBM E-score of 8-mer
AAAATACG	0.0554 ± 0.091
GACTCTAC	-0.23 ± 0.054
CAGTACTG	-0.175 ± 0.0031
ATGGATGC	-0.231 ± 0.0052
ATTAACCG	-0.197 ± 0.074
TACTGGAA	-0.258 ± 0.066
AAGTTAGG	-0.187 ± 0.068
ACTCCATC	-0.101 ± 0.045
AGTGTCAG	0.384 ± 0.017
CTTAGGGA	-0.2515 ± 0.0014
ACTCGTCA	0.216 ± 0.011
ACTTCCCC	-0.0297 ± 0.13
TTCGACAA	0.1 ± 0.031
ACGTGCAT	0.145 ± 0.017
CTAGCACA	0.327 ± 0.024
CCCCAACG	0.199 ± 0.088
CGAGTAAC	0.00354 ± 0.017
GTGTATCA	-0.00951 ± 0.055
GGACCCTA	-0.21 ± 0.0083
GCTGCGGA	-0.0688 ± 0.029
CAGCACAC	0.185 ± 0.043
ACAACAAG	0.161 ± 0.023

Sequence	PBM E-score of 8-mer
ACGTGTAG	0.118 ± 0.015
ACCACGTG	0.169 ± 0.053
GCATCCCC	-0.0919 ± 0.051
GCATACAA	-0.193 ± 0.031
AACGGGAA	-0.0825 ± 0.017
GGACTCTA	-0.281 ± 0.019
ACGGCGAG	-0.0263 ± 0.026
ATATCGGG	-0.153 ± 0.03
AATGAAGT	-0.0296 ± 0.029
TCAAATGA	-0.203 ± 0.019
GAATAAAA	0.07 ± 0.053
CGTCGGTA	0.0302 ± 0.0035
AGTCACCC	-0.0493 ± 0.13
AGGGCAGC	0.00521 ± 0.064
AAACATGG	-0.239 ± 0.044
ATGCACAA	-0.011 ± 0.027
TCCTAAGA	-0.272 ± 0.12
GTTGTAAA	0.132 ± 0.0099
ATATGATG	-0.00711 ± 0.025
GCTTGATA	-0.135 ± 0.011
ACCAGCGC	0.0615 ± 0.063
TGTGATAA	0.406 ± 0.046

Sequence	PBM E-score of 8-mer
AAGTGCAA	0.343 ± 0.014
TGATTCAA	-0.148 ± 0.015
CACATGGA	0.141 ± 0.12
CAACCGGG	-0.0732 ± 0.013
TCGCCCAA	-0.0811 ± 0.07
ATGAATAC	-0.152 ± 0.022
ACGCGCGG	0.19 ± 0.031
ACAATCGA	0.057 ± 0.0036
TATACTGA	-0.209 ± 0.012
ACAAAGTG	0.2 ± 0.061
CTCATAGA	-0.102 ± 0.014
AGATAATG	-0.0716 ± 0.012
CGTTTGCC	-0.051 ± 0.062
ATGAGGAC	-0.403 ± 0.033
GCCATCGC	0.0801 ± 0.06
ATTATTAA	-0.0822 ± 0.023
CACGCCGG	0.213 ± 0.015
TGAAAAAA	-0.0298 ± 0.097
GCATCACC	0.252 ± 0.02
TTCCTAAA	-0.295 ± 0.04
